This experiment concerns B6C3F1 mice, B16 melanoma ip, median survival T/C. The experiment in a line: NCI In Vivo Anticancer Drug Screen. Data for tumor model B16 Melanoma (intraperitoneal) in B6C3F1 mice. Particulars: endpoint: median survival time, higher = longer survival. The method, then:
The antitumor activity of compounds was measured in mice bearing transplantable tumors. Survival or tumor size were measured and the results are expressed as the measurement made in the treated group (T) divided by the measurement made in the vehicle treated control group (C). The tumor model used in this assay is B16 Melanoma (intraperitoneal) in B6C3F1 mice

The mark [1] stands for this setting: dose: 0.75 mg/kg/injection, schedule: Q01DX009 (ip), vehicle: saline.
[2] abbreviates: dose: 6.25 mg/kg/injection, schedule: Q01DX009 (ip), vehicle: saline with Tween-80.
The mark [3] stands for this setting: dose: 50.0 mg/kg/injection, schedule: Q01DX009 (ip), vehicle: Klucel (hydroxypropylcellulose) (HPC).
Where [4] appears, read: dose: 100.0 mg/kg/injection, schedule: Q01DX009 (ip), vehicle: saline.

Inconclusive results and toxic doses are left out. A number of entries come with more than one value. They are shown here; other results are not. The source may hold further records. The values listed for one entry are repeats (runs, samples, wells, individuals or studies).

As to `C/C=C/c1cc2n(c1)C(=O)c1cc(OC3OC(C)C(NC)C(C)(O)C3O)c(C)c(O)c1NC2O` (centres undefined), the T/C (dose: 0.5 micrograms/kg/injection, schedule: Q01DX009 (ip), vehicle: saline) was 104 % of control and 156 % of control.
Regarding `C#CCNC1=C(C)C(=O)C2=C(C1=O)[C@H](COC(N)=O)[C@]1(OC)[C@@H]3N[C@@H]3CN21`, the T/C by setting is: (dose: 3.0 mg/kg/injection, schedule: Q01DX009 (ip), vehicle: distilled water + Tween-80) 100 % of control, 159 % of control, 178 % of control; (dose: 6.0 mg/kg/injection, schedule: Q01DX009 (ip), vehicle: distilled water + Tween-80) 94 % of control, 170 % of control, 303 % of control.
For `CC(C)NC(=O)OCc1c(COC(=O)NC(C)C)c(-c2ccc(Cl)c(Cl)c2)n2c1CCC2`, for the setting “dose: 80.0 mg/kg/injection, schedule: Q01DX009 (ip), vehicle: Klucel (hydroxypropylcellulose) (HPC)”, the T/C is 106 % of control and 319 % of control.
As for `COC1CC2C=C(C)/C=C/C=C/C(=O)NC(c3ccccc3)C/C=C/CCC(O)CC(=O)C2=C1O` (centres undefined), for the setting “dose: 6.0 mg/kg/injection, schedule: Q01DX009 (ip), vehicle: Klucel (hydroxypropylcellulose) (HPC)”, the T/C is 120 % of control and 155 % of control.
Take `CC[C@]1(O)C[C@H]2CN(CCc3c([nH]c4ccccc34)[C@@](C(=O)OC)(c3cc4c(cc3OC)N(C=O)[C@H]3[C@@](O)(C(=O)OC)[C@H](OC(C)=O)[C@]5(CC)C=CCN6CC[C@]43[C@@H]65)C2)C1`: the T/C runs as follows: (dose: 0.12 mg/kg/injection, schedule: Q01DX009 (ip), vehicle: water) 90 % of control and 175 % of control; (dose: 0.25 mg/kg/injection, schedule: Q01DX009 (ip), vehicle: water) 90 % of control and 171 % of control.
In the case of `[Cl][Pt+2][Cl].[NH-]C1CCC1.[NH2-]`, under “dose: 1.5 mg/kg/injection, schedule: Q01DX009 (ip), vehicle: saline”, the T/C is 122 % of control and 171 % of control.
As for `COC1CC(C)C(OC)C2=CC(=O)C=C(NC(=O)/C(C)=C/C=C\C(C)C(OC(N)=O)/C(C)=C\C(C)C1OC)C2=O` (centres undefined), the T/C (dose: 1.25 mg/kg/injection, schedule: Q01DX009 (ip), vehicle: saline + alcohol) is 111 % of control and 154 % of control.
Turning to `CCN(CC)CC(=O)O[C@]1(CC)C(=O)OCc2c1cc1n(c2=O)Cc2cc3ccccc3nc2-1`, the T/C (dose: 4.0 mg/kg/injection, schedule: Q01DX009 (ip), vehicle: water) was 124 % of control and 150 % of control.
As for `COC(COC(=O)N1CCN(C=O)CC1)C1=C(N2CC2)C(=O)C(C)=C(N2CC2)C1=O` (centres undefined), the T/C under setting [1] was 115 % of control and 162 % of control.
On to `COc1cc2c(c(OC)c1OC)-c1ccc(OC)c(=O)cc1[C@@H](NC(C)=O)CC2`, for which, under setting [1], the T/C is 106 % of control and 168 % of control.
Consider `CN=S(=O)(OCCCCCOS(=O)(=NC)c1ccccc1)c1ccccc1` (centres undefined), for which the T/C runs as follows: (dose: 3.12 mg/kg/injection, schedule: Q01DX009 (ip), vehicle: saline with Tween-80) 104 % of control and 154 % of control; under setting [2], 100 % of control and 172 % of control.
As to `Oc1cc(O)cc(/C=C/c2ccc(O)c(O)c2)c1`, the T/C (dose: 25.0 mg/kg/injection, schedule: Q01DX009 (ip), vehicle: DMSO) is 118 % of control and 153 % of control.
For `c1cc(OCC2CO2)ccc1OCC1CO1` (centres undefined), the T/C (dose: 100.0 mg/kg/injection, schedule: Q01DX009 (ip), vehicle: Klucel (hydroxypropylcellulose) (HPC)) was 109 % of control and 158 % of control.
As to `COC(=O)Nc1cn2cc(C(=O)c3cccs3)ccc2n1`, the T/C under setting [3] was 89 % of control and 167 % of control.
For `COC1=C2C[C@@H](C)C[C@@H](OC)[C@@H](O)[C@H](C)/C=C(\C)[C@@H](OC(N)=O)[C@H](OC)/C=C\C=C(/C)C(=O)NC(=CC1=O)C2=O`, the T/C (dose: 4.0 mg/kg/injection, schedule: Q01DX009 (ip), vehicle: saline with Tween-80) was 118 % of control and 157 % of control.
Regarding `COc1cc(C2c3cc4c(cc3C(O)C(CO)C2CO)OCO4)cc(OC)c1OC` (centres undefined), the T/C by setting is: (dose: 50.0 mg/kg/injection, schedule: Q01DX009 (ip), vehicle: saline with Tween-80) 114 % of control and 155 % of control; (dose: 100.0 mg/kg/injection, schedule: Q01DX009 (ip), vehicle: saline with Tween-80) 113 % of control, 151 % of control, 178 % of control; (dose: 200.0 mg/kg/injection, schedule: Q01DX009 (ip), vehicle: saline with Tween-80) 124 % of control and 153 % of control.
With `O=P1(N(CCCl)CCCl)NCCCO1` (centres undefined), the T/C (dose: 400.0 mg/kg/injection, schedule: Q01DX001 (ip), vehicle: saline) was 88 % of control and 198 % of control.
In the case of `COC(=Nc1ccccc1)SSC(C)C`, the T/C under setting [2] is 98 % of control and 160 % of control.
Regarding `COc1cccc2c1C(=O)c1c(O)c3c(c(O)c1C2=O)C[C@@](O)(C(=O)CO)C[C@@H]3OC1CC(N(C)C)C(O)C(C)O1` (some centres undefined), the T/C (dose: 0.25 mg/kg/injection, schedule: Q01DX009 (ip), vehicle: saline) was 117 % of control and 153 % of control.
Take `CNC(=O)OCc1c(COC(=O)NC)c(-c2ccc(F)cc2)n2c1CCC2`: the T/C (dose: 12.5 mg/kg/injection, schedule: Q01DX009 (ip), vehicle: Klucel (hydroxypropylcellulose) (HPC)) is 119 % of control and 154 % of control.
On to `O=NN(CCCl)C(=O)NCCCl`, for which the T/C (dose: 24.0 mg/kg/injection, schedule: Q01DX001 (ip), vehicle: saline) was 107 % of control and 154 % of control.
Regarding `O=C(CCl)N1c2ccccc2Oc2cc3ccccc3cc21`, the T/C under setting [4] is 113 % of control and 153 % of control.
Take `O=S1(=O)CS(=O)(=O)OCCO1`: the T/C (dose: 25.0 mg/kg/injection, schedule: Q01DX009 (ip), vehicle: Klucel (hydroxypropylcellulose) (HPC)) was 123 % of control and 179 % of control.
Take `CCCCCCCCCCCCCCCC(=O)OCC1OC(n2ccc(N)nc2=O)C(O)C1O` (centres undefined): for the setting “dose: 15.0 mg/kg/injection, schedule: Q01DX009 (ip), vehicle: saline with Tween-80”, the T/C was 120 % of control and 158 % of control.
Regarding `O=C(O)c1cc(C(=O)O)c(C(=O)O)cc1C(=O)O.[NH2-].[NH2-].[NH2-].[NH2-].[Pt+2].[Pt+2]`, the T/C (dose: 2.0 mg/kg/injection, schedule: Q01DX009 (ip), vehicle: water) is 124 % of control and 152 % of control.
Take `COC(=O)[C@@]12OC[C@]34[C@H]([C@@H](O)[C@@H]1O)[C@@]1(C)CC(=O)C(O)=C(C)[C@@H]1C[C@H]3OC(=O)[C@H](OC(=O)/C=C(\C)C(C)CO)[C@@H]24` (some centres undefined): the T/C (dose: 0.5 mg/kg/injection, schedule: Q01DX009 (ip), vehicle: saline + alcohol) is reported as 111 % of control, 121 % of control, 155 % of control.
For the compound `O=C1N(CC2CO2)CCN1CC1CO1` (centres undefined), under setting [4], the T/C is 116 % of control and 179 % of control.
Take `O=NN(CCCl)C(=O)Oc1cc(Cl)c(Cl)cc1Cl`: the T/C under setting [3] is 111 % of control and 165 % of control.
On to `O=C1C=CC(=O)O1` (tested in a mixture with another compound), for which the T/C is 116 % of control and 172 % of control (dose: 100.0 mg/kg/injection, schedule: Q04DX003 (ip), vehicle: saline); 122 % of control and 157 % of control (dose: 200.0 mg/kg/injection, schedule: Q04DX003 (ip), vehicle: saline).
As to `CS(=O)(=O)CS(=O)(=O)OCCF`, the T/C (dose: 25.0 mg/kg/injection, schedule: Q01DX009 (ip), vehicle: saline) is listed as 113 % of control, 156 % of control, 194 % of control.
In the case of `CCNC(=O)OCc1c(COC(=O)NCC)c(-c2ccc(Cl)c(Cl)c2)n2c1CCC2`, the T/C under setting [2] was 121 % of control and 154 % of control.
As for `Cn1cc(C2NC(=O)c3ccccc3N2)c2ccccc21` (centres undefined), for the setting “dose: 200.0 mg/kg/injection, schedule: Q01DX009 (ip), vehicle: Klucel (hydroxypropylcellulose) (HPC)”, the T/C is 120 % of control and 162 % of control.
With `COC12C(COC(N)=O)C3=C(C(=O)C(C)=C(N)C3=O)N1CC1C2N1C` (centres undefined), the T/C (dose: 4.0 mg/kg/injection, schedule: Q01DX009 (ip), vehicle: saline) is 95 % of control and 154 % of control.
As for `O=C1c2c(O)ccc(O)c2C(=O)c2c(NCCNCCO)ccc(NCCNCCO)c21`, the T/C (dose: 4.5 mg/kg/injection, schedule: Q01DX001 (ip), vehicle: acid diluted with saline) is 120 % of control and 184 % of control.
Regarding `C1CN(P2(N3CC3)=NP(N3CC3)(N3CC3)=NP(N3CC3)(N3CC3)=N2)CCO1` (centres undefined), the T/C (dose: 32.0 mg/kg/injection, schedule: Q02DX009 (ip), vehicle: saline) was 103 % of control and 185 % of control.
In the case of `CCC12C[N+]3([O-])CCc4c([nH]c5ccccc45)C(C(=O)OC)(c4cc5c(cc4OC)N(C)C4C(O)(C(=O)OC)C(OC(C)=O)C6(CC)C=CCN7CCC54C76)CC(C3)C1O2` (centres undefined), where the note is “dose: 2.5 mg/kg/injection, schedule: Q01DX009 (ip), vehicle: water”, the T/C is recorded as 101 % of control, 113 % of control, 189 % of control.
Turning to `N#Cc1ccc(NN=O)nc1`, the T/C reads like this: (dose: 12.5 mg/kg/injection, schedule: Q01DX009 (ip), vehicle: water) 118 % of control and 169 % of control; (dose: 25.0 mg/kg/injection, schedule: Q01DX009 (ip), vehicle: water) 121 % of control and 157 % of control.

(Values after PubChem BioAssay AID200 (DTP/NCI, 2004).)
